Out of some 310,000 compounds screened, about 2,200 (0.71%) showed an effect of 50% or more. Effects have a minus sign here. Some of the results follow.

human ether-à-go-go-related gene (hERG) potassium channel, sequence (Q12809 whole entry, looked up): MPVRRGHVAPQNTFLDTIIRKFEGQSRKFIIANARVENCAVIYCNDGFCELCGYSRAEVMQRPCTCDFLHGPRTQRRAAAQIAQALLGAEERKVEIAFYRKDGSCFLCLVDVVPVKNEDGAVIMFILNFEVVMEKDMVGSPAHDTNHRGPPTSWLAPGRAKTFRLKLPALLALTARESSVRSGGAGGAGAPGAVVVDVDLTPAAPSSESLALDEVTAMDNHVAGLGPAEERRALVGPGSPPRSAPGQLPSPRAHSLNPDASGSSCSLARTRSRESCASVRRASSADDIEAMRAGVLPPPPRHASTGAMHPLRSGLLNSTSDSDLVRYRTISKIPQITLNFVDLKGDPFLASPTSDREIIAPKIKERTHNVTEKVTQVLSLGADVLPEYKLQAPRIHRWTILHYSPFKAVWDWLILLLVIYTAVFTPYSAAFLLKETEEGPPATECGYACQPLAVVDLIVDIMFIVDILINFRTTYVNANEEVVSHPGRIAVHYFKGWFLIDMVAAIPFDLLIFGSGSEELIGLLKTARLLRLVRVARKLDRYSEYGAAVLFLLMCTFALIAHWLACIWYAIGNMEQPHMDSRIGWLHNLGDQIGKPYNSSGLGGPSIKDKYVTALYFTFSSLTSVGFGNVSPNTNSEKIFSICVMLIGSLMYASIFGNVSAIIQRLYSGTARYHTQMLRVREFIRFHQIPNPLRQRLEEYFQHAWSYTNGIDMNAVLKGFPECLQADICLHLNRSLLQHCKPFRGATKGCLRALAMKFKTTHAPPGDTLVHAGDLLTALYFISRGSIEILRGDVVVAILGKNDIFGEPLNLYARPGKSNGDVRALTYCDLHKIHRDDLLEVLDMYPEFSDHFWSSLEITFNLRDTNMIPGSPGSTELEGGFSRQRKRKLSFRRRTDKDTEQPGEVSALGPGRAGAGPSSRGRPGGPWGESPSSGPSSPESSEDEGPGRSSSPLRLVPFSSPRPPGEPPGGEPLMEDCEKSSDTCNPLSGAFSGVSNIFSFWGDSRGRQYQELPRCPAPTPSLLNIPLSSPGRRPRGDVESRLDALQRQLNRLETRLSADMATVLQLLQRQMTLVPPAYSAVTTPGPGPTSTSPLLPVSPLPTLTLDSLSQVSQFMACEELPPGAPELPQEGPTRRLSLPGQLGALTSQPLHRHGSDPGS

This assay concerns the target human ether-à-go-go-related gene (hERG) potassium channel (human, UniProt Q12809). In words: primary screen, population patch clamp on CHO cells stably expressing hERG.
Regarding `COc1cc(CC(=O)OCC(=O)NC2CCCCC2)cc(OC)c1OC`, the “hERG current change (%, negative = inhibition) at 1uM” value is given as 13%.
With `O=C(/C=C/c1cc2ccccc2o1)c1ccccc1O`, the “hERG current change (%, negative = inhibition) at 1uM” value worked out at 12.8%.
Then `CC(=O)N(C1=NCCCS1)c1ccc(F)cc1`, with 8.25%.
Then `O=C(Nc1cccc(Cl)c1)c1cc(-c2ccco2)on1`, with 11.1%; and `COc1ccc(Nc2ncnc3sc(-c4ccccc4)cc23)cc1OC`, with 9.37%; and `Cc1ccc(S(=O)(=O)N2CCCCC2)cc1NC(=O)COC(=O)C1=COCCO1`, with 14.1%.
Then `O=Cc1c(F)cccc1N1CCCC1`, with 2.68%; and `COC(=O)C1=C2c3[nH]c4ccccc4c3CCN2C(=O)CC1`, with 15.1%.
Consider `CCOc1ccc(NC(=O)NCCN2CCN(c3cccc(C)c3C)CC2)cc1`, for which the “hERG current change (%, negative = inhibition) at 1uM” value is 0.315%.
Turning to `COc1cc(C(=O)NC2CC3CCCC(C2)N3C2CC2)cc(OC)c1OC` (stereo not shown), the “hERG current change (%, negative = inhibition) at 1uM” value was determined as 18.2%.
In the case of `COc1ccc(OCCCn2ccnc2)cc1.Cl`, the “hERG current change (%, negative = inhibition) at 1uM” value is 24.3%.
On to `COc1ccc(N2CCN(C(=O)c3cccc(F)c3)CC2)c([N+](=O)[O-])c1`, for which the “hERG current change (%, negative = inhibition) at 1uM” value is -39%.
Next, `O=C(CSC1CC(=O)N(CCc2ccccc2)C1=O)Nc1ccc(Cl)cc1` (stereo not shown): 5.21%; `O=C(c1cc(COc2c(F)cccc2F)on1)N1CCc2ccccc2C1`: 4.47%; `Cc1ccc(NC(=O)CCC(=O)NNC(=O)NC2CCCCC2)c(C)c1`: -2.65%.
Regarding `CCOC(=O)C[C@H]1c2cc(F)ccc2S(=O)(=O)N1Cc1ccc(OC)cc1`, the “hERG current change (%, negative = inhibition) at 1uM” value came to 8.74%.
Turning to `Cc1cc(C(=O)N/N=C/C(Cl)=C/c2ccccc2)c(C)o1`, the “hERG current change (%, negative = inhibition) at 1uM” value came out at 18.2%.
Next, `O=C(NC(=S)Nc1ccccn1)c1cccc([N+](=O)[O-])c1`: 9.86%.
Next, `O=C(NCCS(=O)(=O)NCCCc1ccccc1)c1ccccc1`: 9.44%; `COc1ccccc1NC(=O)c1c(C)nn(-c2ccccc2)c1Cl`: 10.9%; `CCCCN1Cc2c(nc3cc(-c4ccco4)[nH]n3c2=O)C1=O`: 8.46%.
Then `CCC1(c2ccccc2)NC(=O)N(CC(=O)Nc2cc(S(=O)(=O)N3CCCCC3)ccc2OC(C)C)C1=O` (stereo not shown), with 9.04%; and `COc1ccc(CN(Cc2ccc(OC)cc2)C(=O)c2cccs2)cc1`, with -1.17%; and `CCOC(=O)c1cnc2ccc(OC)cc2c1Nc1ccc2c(c1)OCCO2`, with 11.1%.
Take `O=C(Nc1ccnn1C1CCN(C(=O)CCc2ccc(F)cc2)CC1)C1CCOC1` (stereo not shown): the “hERG current change (%, negative = inhibition) at 1uM” value is given as 0.0845%.
Then `CC1(C)Cc2nc3oc4c(=S)nc[nH]c4c3cc2CO1`, with 8.76%.
Next, `Cc1ccc(NC(=O)c2cnc(SCC(=O)NCC3CCCO3)n(C)c2=O)cc1` (stereo not shown): -0.201%; `O=C(c1ccccc1F)N1CCN(c2ccc([N+](=O)[O-])cc2-n2cccc2)CC1`: 8.49%.
In the case of `COc1ccc(S(=O)(=O)NCC2CCCN(CC(C)(C)C)C2)cc1` (stereo not shown), the “hERG current change (%, negative = inhibition) at 1uM” value is 2.32%.
With `CCc1ncc(/C=C2\C(=O)Nc3ccccc32)[nH]1`, the “hERG current change (%, negative = inhibition) at 1uM” value is 11.8%.
In the case of `O=C(CC(c1ccccc1)c1ccccc1O)NCc1ccccc1` (stereo not shown), the “hERG current change (%, negative = inhibition) at 1uM” value was found to be 10.1%.
Next, `O=C(COc1ccc(Cl)cc1)NCc1nnc(SCC(=O)NC2CCCC2)o1`: -1.65%; `CC(=O)c1sc2nc(C)c3c(c2c1N)CCCC3`: 6.7%; `CCSc1nnc(NC(=O)NC2CCCCC2)s1`: 10.9%.
Then `O=C(NCCCN1CCCC1=O)Nc1ccc(F)c(Cl)c1`, with 8.01%.
Regarding `Oc1ccc(N=Nc2n[nH]c(-c3ccc(Br)cc3)n2)cc1`, the “hERG current change (%, negative = inhibition) at 1uM” value amounted to 8.59%.
Then `COC(=O)c1ccc(NC(=O)c2c(C(=O)Nc3ccccc3)sc3nc(C)cc(=O)n23)cc1`, with 11.8%; and `Cn1c(=O)c2c(nc(NN=C3CCCC3)n2C)n(C)c1=O`, with 12.7%.
Next, `CC(C)Oc1cccc(-c2nnc(SCC(=O)Nc3ccc4c(c3)OCCO4)n2N)c1`: -2.59%; `CCCCCc1ccc(-c2nnc(N)s2)cc1`: 13.2%; `COc1cc(CN2CCSCC2)c([N+](=O)[O-])cc1OC`: 11.7%.
Then `CCCCn1c(N)c(N(CCC(C)C)C(=O)CC2CCCC2)c(=O)[nH]c1=O`, with 12.4%; and `CN1/C(=C\C(=O)COC(=O)CNC(=O)c2ccc3ccccc3c2)C(C)(C)c2ccccc21`, with 5.56%; and `Cc1cc(C)nc(N2CCN(c3ccc(F)cc3)CC2)n1`, with 14.4%.
In the case of `NC(=O)C1CCN(C2=C(NS(=O)(=O)c3ccc(Cl)cc3)C(=O)c3ccccc3C2=O)CC1`, the “hERG current change (%, negative = inhibition) at 1uM” value is -11.9%.
Next, `COc1ccc(S(=O)(=O)n2c([N+](=O)[O-])cnc2C)cc1OC`: 7.42%; `CCN1CCN(CC(=O)Nc2ccc(N(C)C)cc2)CC1.O=C(O)C(=O)O`: 8.45%.
Next, `CCn1c2ccccc2c2cc(NS(=O)(=O)c3ccc(C)cc3)ccc21`: 10%; `COc1ccc2[nH]c(C(=O)NCc3ccc4c(c3)OCO4)cc2c1`: 11.2%; `Cc1ccccc1-n1c(=O)c2ccccc2n(CC(=O)NCc2ccco2)c1=O`: 3.89%.
Next, `O=C(CSc1nnc(-c2cccnc2)o1)Nc1ccc(Br)cc1`: 15.1%.
Regarding `COc1ccc(Oc2nc3ccccc3n3cccc23)cc1`, the “hERG current change (%, negative = inhibition) at 1uM” value is 7.42%.
Turning to `Cc1ccc(Cl)c(OCC(=O)Nc2sc(C)c(C)c2C#N)c1`, the “hERG current change (%, negative = inhibition) at 1uM” value was found to be 14.8%.
Next, `COc1ccc(C2CC(c3ccc4ccccc4c3)=NN2C(=O)COC(=O)C2CCC(=O)N2)cc1` (stereo not shown): 6.91%; `Cc1cccc(C(C)C)c1NC(=O)COC(=O)CCN1C(=O)C2CC=CCC2C1=O` (stereo not shown): 6.45%.
Then `C=C1N(c2ccc(Cl)cc2)C(=O)OC1(C)C`, with 7.14%; and `Cc1ccc(NS(=O)(=O)N2CCOCC2)cc1Cl`, with -4.43%; and `COc1ccc(NS(=O)(=O)c2ccc3nc(COc4cccc5ccccc45)[nH]c3c2)cc1`, with 11.5%.

The record behind these values is publication PMC4336329 (PLoS ONE, 2015).
